This is an account of results in US20250248396A1, “CHITOSAN ENCAPSULATION OF ABSOLUTE (ESSENTIAL) ROSEMARY, PEPPERMINT, AND COTTONSEED OILS” (priority 2024, published 2025).

Marks after values point to notes of the source that are not given here.

For data set [1], the system named is root-knot nematodes (Meloidogyne spp.). The data set is described as follows: Nematocidal activity on hatched root-knot nematodes in Petri dish. The format is in vivo. As to the method: In some embodiments, the nematodes used in the experiments were mainly Meloidogyne spp. The below disclosed experiment results are related to the evaluation of nematocidal activity of naturally derived material.
The tomato roots infected with root-knot nematodes were washed with running water and were then cut to a size of about 1 cm, after which 50 g of the cut roots were placed in a 500 ml round-bottom flask containing 200 ml of 0.5% sodium hypochloride (NaOCI), stopped with a rubber stopper, and shaken vigorously for 3 min to sterilize the roots and at the same time burst the egg bag. Thereafter, the solution was passed through a sieve in which 200 mesh was superimposed on 500 mesh, and washed with distilled water, so the eggs of the root-knot nematodes from which the NaOCl solution was removed were recovered.
Next, the eggs of the root-knot nematodes thus recovered were surface-sterilized with 0.5% NaOCl for 10 min, washed thoroughly with sterile distilled water, placed in a phosphate buffer (1%) containing sterilized normal saline, and hatched in an incubator at 25° C.
Thereafter, each mixed solution was diluted to 2000 ppm, 2 to 3 ml thereof was poured into a Petri dish, after which 15 hatched root-knot nematodes were placed in the Petri dish, and nematocidal activity was measured and the results thereof are shown in Table 1 below.
The number of root-knot nematodes used for the experiment on the number of killed root-knot nematodes was 15 at each dilution factor.

The conditions of data set [2]: all the antioxidant assay systems; cited from earlier work.
The subject of the next data set is tomato seedlings. The data set is described as follows: Phytotoxicity of geraniol drenching treatment on potted tomato seedlings. The format is in vivo. Particulars: for Extent of phytotoxicity (0-5) / Phytotoxicity symptom: Tomato, 50 ml drench. The text has this:
Sterilized soil was uniformly mixed, 300 g thereof was then placed in each pot, and tomato seedlings not infected with root-knot nematodes were transplanted thereto.

In data set [3] the test system is root-knot nematodes (Meloidogyne spp.). Nature of the data set: Assessment of nematocidal activity in development of embodiments. The format is in vivo.
Data set [4] deals with Ae. aegypti, Culex species mosquitoes, Anopheles species mosquitoes. The data set is described as follows: Mosquito and midge adult activity. The class given is in vivo. Particulars: used at 500 to 8,000 ppm.
For data set [5] the following is noted: cited from earlier work.
The test system of a further data set is plant. Nature of the data set: Plant phytotoxicity in the nematocidal assessment. The note with it: treatment with geraniol.
The test system of data set [6] is Black Sigatoka. The data set is described as follows: Black Sigatoka assessment in development of embodiments. The note with it: general statement.
For another data set, the system named is multiple insects. Nature of the data set: Insecticidal activity on multiple insects. The class given is in vivo.
In data set [7] the test system is Black Sigatoka. The data set is described as follows: Field trials in bananas against black Sigatoka, tank mixes. The format is in vivo, Mycosphaerella fijiensis. Particulars: applied as tank mixes with tea tree oil, banana. As to the method: Tea tree oil was used in disclosed experiments and trials as an 53 mulsifiable concentrated formulation. For field trials in bananas, tea tree oil was applied similarly to conventional synthetic fungicides, with mineral oil, surfactants, and/or just water. The following fungicides, registered for use against black sigatoka in bananas, were tested for comparison: azoxystrobin (Bankit 25 SC), trifloxystrobin (Flint, Tega 50 WG), difenoconazole (Score, Sico 25 EC), mancozeb (43 SC Duwest 80 WP), flutriafol (Impact, 125 SC) and tridemorph (Calixin 86 OL).
Fungicides are combined in mixtures mainly: to widen the spectrum of antifungal activity and to extend its duration; to exploit the synergistic interaction between the compounds, whereby the overall activity can be increased or the amounts used can be reduced without loss of activity; and to delay or reduce the emergence of resistant strains. […] Although in principle, combinations of synthetic antifungal compounds could be used to reduce the chemical load of any particular compound applied to crops, concerns about resistance development at lower doses have militated against their use as advised by the Fungicide Resistance Action Committee (FRAC).

[8] abbreviates: 2000 ppm, 1 day, 15 nematodes per dish.
[9] abbreviates: 2000 ppm, 2 days, 15 nematodes per dish.
The mark [10] stands for this setting: 2000 ppm, 3 days, 15 nematodes per dish.

For the molecule `C/C=C(\C)C(=O)O[C@H]1C[C@@H](OC(C)=O)[C@@]2(C(=O)OC)CO[C@H]3[C@@H](O)[C@@](C)([C@]45O[C@@]4(C)[C@H]4C[C@@H]5O[C@@H]5OC=C[C@@]54O)[C@H]4[C@]1(CO[C@]4(O)C(=O)OC)[C@@H]32` [Azadirachtin], the “number of killed root-knot nematodes” value in data set [1] (setting [8]) stood at 7; in data set [1] (setting [9]), 8; in data set [1] (setting [10]), 10.

In the case of `O=c1c(O)c(-c2ccccc2)oc2cc(O)cc(O)c12` [Galangin], the antioxidant activity entry in data set [2] is “comparable activity with that of AEP and EEP”.

As for `CC(C)=CCC/C(C)=C/CO` [Geraniol, 3,7-dimethyl-2,6-octadien-1-ol], the “number of killed root-knot nematodes” value in [1] (setting [8]) was 15^a; in data set [1] (Geraniol 2,000 ppm, 1 day, of 15), 15; in data set [1] (Geraniol 10,000 ppm, 1 day, of 15), 15^a. Also, the “Extent of phytotoxicity (0-5)” value is 0 with tomato seedlings (Geraniol 100 ppm, 1 week); 0 in the data set on tomato seedlings (Geraniol 200 ppm, 1 week); 0 with tomato seedlings (Geraniol 330 ppm, 1 week); 0 in the data set on tomato seedlings (Geraniol 500 ppm, 1 week); 0 in the data set on tomato seedlings (Geraniol 1,000 ppm, 1 week); 0 in the data set on tomato seedlings (Geraniol 2,000 ppm, 1 week). The “Extent of phytotoxicity (0-5)” value in the data set with tomato seedlings (Geraniol 3,000 ppm, 1 week) stood at 0; in the data set on tomato seedlings (Geraniol 4,000 ppm, 1 week), 5; in the data set on tomato seedlings (Geraniol 5,000 ppm, 1 week), 5; in the data set with tomato seedlings (Geraniol 10,000 ppm, 1 week) it was 5; with tomato seedlings (Geraniol 20,000 ppm, 1 week), 5. Also, the Phytotoxicity symptom entry in the data set on tomato seedlings (Geraniol 100 ppm, 1 week) is “No”; in the data set with tomato seedlings (Geraniol 200 ppm, 1 week) it was “No”; with tomato seedlings (Geraniol 330 ppm, 1 week), “No”; in the data set with tomato seedlings (Geraniol 500 ppm, 1 week), “No”; with tomato seedlings (Geraniol 1,000 ppm, 1 week), “No”; in the data set on tomato seedlings (Geraniol 2,000 ppm, 1 week) it was “No”. For the same molecule, the Phytotoxicity symptom result with tomato seedlings (Geraniol 3,000 ppm, 1 week) was “No”; in the data set on tomato seedlings (Geraniol 4,000 ppm, 1 week), “Withered”; in the data set with tomato seedlings (Geraniol 5,000 ppm, 1 week) it was “Withered”; with tomato seedlings (Geraniol 10,000 ppm, 1 week), “Withered”; in the data set on tomato seedlings (Geraniol 20,000 ppm, 1 week), “Withered”. Moreover, the “phytotoxicity symptoms on tomato seedlings” value in the data set with tomato seedlings (at 4000 ppm or more) was “the bottoms of the stems dried up and all tomato seedlings collapsed and withered”; with tomato seedlings (concentration range of 100 ppm to 3,000 ppm) it was “no particular phytotoxicity symptoms”. Also, in the data set with tomato seedlings (drench, 1 week), the “concentration that caused phytotoxicity in tomato seedlings” value was ≥ 4,000 ppm. Further, in the data set with tomato seedlings (drench, 1 week), the “concentration with no effect on tomato seedlings” value is ≤ 3,000 ppm. The nematocidal activity entry in [3] (geraniol alone or in combination with oxymatrine, neem extract, clove extract or Ostericum koreanum extract (b178 also Quillaja saponaria Molina)) is “superior nematocidal activity was confirmed”. The “nematocidal control and plant phytotoxicity” value in data set [3] (used at 500 to 4,000 ppm) was “superior nematocidal control was demonstrated without plant phytotoxicity”. Besides, in data set [4], the “mosquito and midge control, plant phytotoxicity, water toxicology” value is “superior mosquito and midge control was demonstrated without plant phytotoxicity or water toxicology”. Moreover, in data set [5] (most common organic solvents), the “solubility in organic solvents” value was “soluble”. In data set [5] (water), the solubility in water result was “insoluble”. The “concentration at which plant phytotoxicity was shown to occur” value in the data set with plant is on record as ≥ 4,500 ppm. Also, the “control of the black sigatoka fungus” value in the data set on Black Sigatoka [6] is “effective”.

For the molecule `O=C1CCC[C@@H]2[C@H]3CCC[N+]4([O-])CCC[C@@H](CN12)[C@@H]34` (stereo partly drawn) [Oxymatrine], the insecticidal activity result in the data set on multiple insects (in vivo) is on record as “superior insecticidal activity was confirmed”. In addition, the “insecticidal control and plant phytotoxicity” value in the data set on multiple insects (used at 500 to 6,000 ppm) is listed as “superior insecticidal control was demonstrated without plant phytotoxicity”.

Regarding `CC1COC(Cn2cncn2)(c2ccc(Oc3ccc(Cl)cc3)cc2Cl)O1` (stereo not drawn) [difenoconazole], in the data set with Black Sigatoka [7], the “control of Black Sigatoka” value is given as “effectively controlled Black Sigatoka”.

On to `CON=C(C(=O)OC)c1ccccc1CON=C(C)c1cccc(C(F)(F)F)c1` [trifloxystrobin], for which the “control of Black Sigatoka” value in the data set with Black Sigatoka [7] is recorded as “effectively controlled Black Sigatoka”.

In the case of Pyrethrin, in data set [1] (2000 ppm, 15 nematodes, observed up to 3 days), the “Nematocidal efficiency (%)” value is given as 73.3%. For the same molecule, the “number of killed root-knot nematodes” value in data set [1] (setting [8]) worked out at 5; in data set [1] (setting [9]), 6; in data set [1] (setting [10]) it was 11.
